Results as given in the RNAGym collection of RNA variant scans (doi:10.1073/pnas.2313332121).
This sample is rich in variants without activity.

B1: TPR 5TU (parent)
chain: GGAUCUUCUCGAUCUAACAAAAAAGACAAAUCUGCCACAAAGCUUGAGAGCAUCUUCGGAUGCAGAGGCGGCAGCCUUCGGUGGCGCGAUAGCGCCAACGUUCUCAACUAUGACACGCAAAACGCGUGCUCCGUUGAAUGGAGUUUAUCAUG

Variants of: B1
Assay: polymerase ribozyme fitness, log enrichment relative to wild type (log ratio); higher = more active; in vitro selection for triplet polymerase activity
In short: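 The heterodimeric triplet polymerase ribozyme's subunits were each mutagenized into PCR-built libraries and transcribed. Every library was selected once, in triplicate, by annealing with a biotinylated primer, the partner subunit and triplets, incubating frozen at −7 °C, gel-excising extended constructs, capturing on streptavidin beads and running RT-PCR. Input and output libraries were Illumina-sequenced, with genotypes kept only at ≥10 input reads and ≥1 read per output. Fitness, from inverse-variance-weighted replicate averages, is the base-2 logarithm of genotype enrichment over wild-type enrichment.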

Polymerase ribozyme fitness (log ratio), -1.8:
C5G U53A

Polymerase ribozyme fitness (log ratio), -9.25e-05:
C5U A22C C85A

Polymerase ribozyme fitness (log ratio), -3.99:
C5G A23C C72U G88U C132G U135G U148G

Polymerase ribozyme fitness (log ratio), -2.43:
U4G C35U G83C G124U U146C

Polymerase ribozyme fitness (log ratio), ≤ -4.2:
U4A U7A C14U A28G U53G C54A A64U C87A C103U C116A A122G
C5A C76A C85U G88U A89U G141C U144C
U4C G86U A137U
U4C A52C G68U G88C U104A A107G
U4C U45A U55G C69G G86U A110G U111G
U4A A28U G58A G68A A142G
C5G A29G U45G G58A C99A
U4A C14G A89U U90C G94U C114U G117U G133U
U4C U9G A12U A23C A30U U45G C79U G88A A121G
U4G A41G G42C C43U U44A C69A G84U C95A C123U U134G
C5G G25C A28C A41C A49C U101A
C5A A30U C57A C85A C87A U146A U148A
U4A A60U G86A A107G A122C
U4G G50C A73G U102C
C5G A12G G42C U61G A106C C125U G143U U144G
U4C U7A C72G U144A
C5G C57G C87G A115C
C5U A19G G88A
C5A A30G C36U G68U G100A
U4C G11A G68A C72A G83U C93G G140A U148C
U4C C18U G48U A49C G68U G74A C76A G88U C116G
U4C G42A A49C G50C C51U C79G A91U A121G
U4C G83C G141U U151G
C5U A28C A30U C95G
C5A U9A A41G C76G A91U G126A G136A
U4C A20C U53A G68A C79U U82G A91U G117U
U4C U56A U61A C85A C125G U134C G141U
C5A U53G C87A
U4G C10U U31C A40C A49U G88U A110G C116U U134A U144C
C5U A49G G67U G84U U144G G152U
U4G U9A C35A G48C U134G
C5G A23U C54G C79U G81U G94U U101A A110C C131A
C5U C18U G34U C36U C132G
U4C G50A G83A C87A A91C G92A U146A
C5G C69G C85A G133U U145C
U4C A26U U55A G88A C116A
U4C A20C A150G U151A
C5G A24U U31C G42C C69A A97G C105U A137U
C5U A12U A52G C85A G140U
U4A G84A C103A A106U A142C C149U
C5A A16U A20C A30U G46U C51U C72A
U4G G46U A47C A52C C85G C125G
C5A U31G C85G C99U A115U C118A G136U G141C
U4G C32U C35U G46A C76G G84U
C5A U53A C54A C131A G140U
C5U A19C A39G G80C C87U C105G U135A
C5U A40U C85U C95G C132G G141A
U4C C14G A30G C38G U144C
C5G C76G
U4C C8A A39G U55A G88U C93U U102G
C5G G25C A28C C57G G58A C76G G143U
C5A C51G G74A C85G C87U
U4C U31G G50C C51A G58U C76A G83A
C5U C8A A26U U53A G58A A89G A91C C103G C149U
C5G A41G G42A C85A A138U
U4A U6A C36A G46C A49C C99G A137C U145C
U4G A28U C35U U44G G94A A120U C125U G141C
U4C A12C A64G G80A A91G
C5A U33A C123G A142U
U4A C54A G71C G94A C105U
U4A A49G G50C A66C C76G C93U
U4C U6G C35A C85U C108U G141A
C5U C43G G68C G74A C76G C87U
U4A C18G G68A G92U
C5G A17U C32A G42A G62U C76U G83U C87U C118G

Polymerase ribozyme fitness (log ratio), -3.16:
C5G U45G G86U C93G A97G

Polymerase ribozyme fitness (log ratio), -0.0351:
U4C A12G U31G G94C A121G

Polymerase ribozyme fitness (log ratio), -0.595:
C5A C51U

Polymerase ribozyme fitness (log ratio), -1.53:
C5G G59U C99U A119G

Polymerase ribozyme fitness (log ratio), -0.404:
U4A A17C G59C A119G

Polymerase ribozyme fitness (log ratio), -1.91:
U4G U13A C57A A106C G136A

Polymerase ribozyme fitness (log ratio), -4.05:
C5A C54U U55A C95G C96A

Polymerase ribozyme fitness (log ratio), 0.183:
U4A U15G C87U

Polymerase ribozyme fitness (log ratio), -2.68:
C5G G94C U101G

Polymerase ribozyme fitness (log ratio), -0.358:
C5G C57U

Polymerase ribozyme fitness (log ratio), -4.02:
C5A G42C

Polymerase ribozyme fitness (log ratio), -1.4:
U4C U53A U55A G81C A150U

Polymerase ribozyme fitness (log ratio), -3.47:
C5A A19U G86C

Polymerase ribozyme fitness (log ratio), -0.488:
C5G A120C
